# Laboratory results taken from PubChem BioAssay AID2101 (National Center for Advancing Translational Sciences (NCATS), 2009).
# About 300 (0.091%) of roughly 330,000 compounds were called active. The shares of active, inactive and inconclusive entries below differ from those in the screen. The call rests on the fitted dose curve; in most records, active means well fitted inhibition curve with a large enough effect; inconclusive means small, poorly fitted or top-dose-only effect, or effect the other way, or another doubt; inactive means no such curve, though single readings can be large or run the other way. Potencies of inconclusive entries are left out as doubtful fits.
# Molecular target: Lysosomal acid glucosylceramidase (Homo sapiens) (UniProt P04062)
# Test: qHTS Assay for Inhibitors and Activators of N370S glucocerebrosidase as a Potential Chaperone Treatment of Gaucher Disease;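 on activity change, negative = inhibition: 0% = full enzyme activity and -100% = no enzyme basal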
# Conditions: N370S GC spleen homogenate, 4MU-glucoside fluorescence; activity change, negative = inhibition: at 59.4 µM (top of the series) unless noted
# Potency means the concentration at half of the fitted maximal effect.
Compound,Potency,"activity change, negative = inhibition"
CCOC(=O)c1ccccc1NC(=O)COC(=O)CCC(=O)c1ccccc1,"inconclusive [activator, partial curve]",
CCN(c1cccc(C)c1)S(=O)(=O)c1ccc2[nH]c(=O)c(=O)[nH]c2c1,"inconclusive [inhibitor, partial curve]",
Cc1ccc([N+](=O)[O-])cc1Nc1nc(N2CCCC2)nc(N2CCCC2)n1,,inactive: -8.3%
CCN(c1ccccc1)S(=O)(=O)c1cccc(C(=O)NCC(c2cccs2)N(C)C)c1 (stereo not drawn),"inconclusive [inhibitor, single point]",
COc1cc(OC)c2c(c1C(CCN1CCCC1)c1ccc(N(C)C)cc1)OC(=O)CC2c1ccc(N(C)C)cc1 (stereo not drawn),"inconclusive [inhibitor, partial curve]",
O=C1C2C(C(=O)N1/N=C/c1ccc([N+](=O)[O-])o1)C1C=CC2C12CC2 (stereo not drawn),,inactive: 1.38%
COc1ccc(CN=C(Nc2ccccc2)SC2CC(=O)N(C)C2=O)cc1 (stereo not drawn),,inconclusive: 30.4% [activator]
COc1cccc(C(=O)NC(=S)Nc2ccc(N(C)C)cc2)c1,,inactive: -7.05%
C=C1C(=O)O[C@@H]2C[C@@H](C)[C@@H]3C=CC(=O)[C@@]3(C)[C@@H](OC(C)=O)[C@H]12,,inactive: -3.2%
COc1ccc(NS(=O)(=O)c2cccc(C(=O)NCC(c3ccc(OC)cc3)N3CCOCC3)c2)cc1 (stereo not drawn),"inconclusive [inhibitor, partial curve]",
O=C(Nc1ccccc1F)Nc1cccc2ccc(O)cc12,"inconclusive [activator, single point]",
COc1ccccc1NC(=O)CSc1nc2c(sc3ccccc32)c(=O)n1CCN(C)C,"inconclusive [activator, partial curve]",
O=C(CCc1ccccc1)Nc1nc2n(n1)C(c1ccc(Cl)cc1)CC(=O)N2 (stereo not drawn),,inactive: 4.48%
CCC(C(=O)NC1CCCCC1)n1c(SCc2ccccc2F)nc2ccncc21 (stereo not drawn),"inconclusive [activator, single point]",
COc1ccc(-n2c(SCC(=O)NCC3CCCO3)nc3n[nH]c(C)c3c2=N)cc1 (stereo not drawn),"inconclusive [activator, partial curve]",
COc1ccc(C2CC(c3ccc(F)cc3)=NN2c2ccccc2)cc1OC (stereo not drawn),"inconclusive [activator, partial curve]",
COc1ccc(C(=O)COc2ccc3ccc(=O)oc3c2)c(OC)c1,"inconclusive [activator, single point]",
O=C1NC(=O)/C(=C/c2ccccc2Cl)N1,"inconclusive [inhibitor, partial curve]",
COc1ccc(-c2c(C)c3ccc(O)cc3oc2=O)cc1,"inconclusive [activator, single point]",
COCCCNc1nc2ccccc2nc1NS(=O)(=O)c1ccc(C)c(C)c1,,inactive: 7.06%
CCN(CC)CCNC(=O)c1ccc(NC(=O)c2ccc(Cl)c(S(=O)(=O)N3CCCCCC3)c2)cc1,"inconclusive [inhibitor, single point]",
COc1ccc(NC(=O)CN(C)C(=O)c2ccc(NS(=O)(=O)c3cccc([N+](=O)[O-])c3)cc2)cc1,"inconclusive [inhibitor, single point]",
COC(=O)CC1(c2cccc3ccccc23)C(=O)c2ccccc2C1=O,"inconclusive [activator, partial curve]",

Compound,Potency,"activity change, negative = inhibition"
Cc1cccc(C2=NN(c3ccc(Br)cc3)[C@@H](C(=O)N3CCOC3=O)[C@@H]2C)c1,"inconclusive [activator, single point]",
CC1(C)Cc2c(cnn2-c2ccccc2)-c2c1c1ccccc1n2CC(O)CCl (stereo not drawn),,inactive: 1.54%
O=S(=O)(Nc1cccc2ccccc12)N1CCCC1,,inactive: 22.9%
COc1cccc(CNC(=O)CC(NC(C)=O)c2ccccc2)c1 (stereo not drawn),,inactive: 5.25%
CC1(C)N=C(N)N=C(N)N1c1ccc(OCCCOc2ccccc2)c(Cl)c1,"inconclusive [inhibitor, partial curve]",
C=CC(C)(C)c1[nH]c2ccccc2c1C1=C(O)C(=O)C(c2c[nH]c3c(CC=C(C)C)cccc23)=C(O)C1=O,,inactive: -7.55%
O=C(O)c1cc(-c2cccs2)nc2cc3c(cc12)OCCO3,"inconclusive [activator, single point]",
CCOc1ccc2nc(N(CCN(C)C)C(=O)/C=C/c3cccs3)sc2c1,,inactive: -21%
c1ccc2[nH]c(SCc3cscn3)nc2c1,"inconclusive [inhibitor, partial curve]",
Cc1cc(NC(=O)Nc2ccc3c(ccn3C)c2)sn1,inactive,
CCCCc1cc(=O)oc2c3c(cc(OCC(=O)NCCCO)c12)OC(C)(C)CC3,"inconclusive [activator, single point]",
Cc1cccn2c(=O)c3cc(C(=O)NCC4CCCO4)c(=N)n(CC4CCCO4)c3nc12 (stereo not drawn),"inconclusive [activator, partial curve]",
COc1ccc(NC(=O)C23CC4CC(C2)CC(n2cnc(Br)n2)(C4)C3)cc1Cl,"inconclusive [activator, partial curve]",
Cn1cnc([N+](=O)[O-])c1Sc1ccc(Br)cc1,,inactive: -5.15%
Cc1cccc(CNC(=O)c2ccc3c(c2)N(C)CCS3)c1,"inconclusive [activator, single point]",
O=C(Nc1cccc([N+](=O)[O-])c1)c1ccc2c(c1)OCCO2,,inactive: 0.768%
COc1cccc(-c2ccc(-c3noc(-c4ccccc4F)n3)c(OC)n2)c1,,inactive: 5.94%
O=S(=O)(c1cccc(Cl)c1)N1CCC(c2nc3ccccc3[nH]2)CC1,"inconclusive [inhibitor, single point]",
COc1ccc(NC(=O)n2nc(OC(=O)c3cccs3)cc2N)cc1,,inactive: 2.35%
C=CCN1CN(S(=O)(=O)c2cccc(Cl)c2)c2nc3ccccc3nc21,"inconclusive [activator, partial curve]",
Cc1ccc(-c2nnc(N3CCCCC3)c3ccccc23)cc1S(=O)(=O)NCC1CCCO1 (stereo not drawn),"inconclusive [inhibitor, single point]",
CN(C)S(=O)(=O)c1cccc(C(=O)Nc2ccccc2N2CCCCC2)c1,"inconclusive [activator, single point]",
O=C(O)CCC(=O)N1CCN(c2nc(-c3ccccc3Cl)c3cc(Br)ccc3n2)CC1,"inconclusive [inhibitor, partial curve, poor fit]",

Compound,Potency,"activity change, negative = inhibition"
O=c1cc(-c2ccccc2F)oc2ccccc12,"inconclusive [activator, single point]",
N#Cc1c(-c2cccs2)nc(SCC(=O)c2cccs2)[nH]c1=O,"inconclusive [activator, partial curve]",
Cc1cc(O)c(C(C[N+](=O)[O-])c2ccc(Cl)cc2Cl)c(=O)o1 (stereo not drawn),"inconclusive [inhibitor, partial curve]",
CC(C)c1ccccc1-n1c(SCC(=O)N2CCc3ccccc3C2)nc2ccccc2c1=O,,inconclusive: 30.8% [activator]
O=C(N/N=C/c1ccccc1F)NC12CC3CC(CC(C3)C1)C2,"inconclusive [activator, full curve]",
COC(=O)c1ccccc1NC(=O)N1CCCC1,,inactive: 8.34%
COc1ccc2nc(N3CCOCC3)cc(C)c2c1,"inconclusive [activator, partial curve]",
Cc1ccc(C)c(-c2nnc(NC(=O)c3ccc([N+](=O)[O-])o3)o2)c1,,inactive: -2.75%
CN(CC(=O)Nc1ccc(C#N)cc1)Cc1ccc(Cl)cc1Cl,"inconclusive [inhibitor, partial curve, poor fit]",
Cc1ccc(C(=O)c2oc3nc(C)cc(C)c3c2N)cc1,"inconclusive [activator, partial curve, poor fit]",
O=C(c1cccs1)N1CCc2c([nH]c3ccccc23)C1c1ccccn1 (stereo not drawn),"inconclusive [activator, partial curve]",
O=C(NN1C(=O)c2ccccc2NC1c1ccccc1OCc1ccccc1)c1ccncc1 (stereo not drawn),,inconclusive: 53% [activator]
CC(C)(C)OC(=O)CNC(=O)c1[nH]cnc1C(=O)NC(c1ccccc1)c1ccccc1,"inconclusive [activator, partial curve]",
CC(C)(C)CC(=O)Nc1ccc(-c2cn3cccnc3n2)cc1,"inconclusive [activator, partial curve]",
O=C(CSc1ncn[nH]1)NC12CC3CC(CC(C3)C1)C2,"inconclusive [activator, single point]",
Clc1nc(-c2ccccn2)nc2scc(-c3ccccc3)c12,,inactive: 7.77%
O=C1NCCCc2nc(Oc3ccccc3)sc21,"inconclusive [inhibitor, full curve, poor fit]",
COc1ccc(C(=O)CN2C(=O)NC3(CCCc4ccccc43)C2=O)c(OC)c1 (stereo not drawn),"inconclusive [inhibitor, partial curve, poor fit]",
CCOC(=O)COc1ncn(-c2ccccc2)n1,"inconclusive [activator, full curve, poor fit]",
CCCCCn1c(=NC(C)=O)c(C#N)cc2c(=O)n3ccccc3nc21,"inconclusive [activator, partial curve, poor fit]",
Cc1ccc(Nc2n[nH]c(C)c2[N+](=O)[O-])c(C)c1,,inactive: -0.44%
COc1ccc(C)cc1NC(=O)C(OC(=O)c1cc(C)oc1C)c1ccccc1 (stereo not drawn),"inconclusive [activator, partial curve]",
